Measurements: patent publication US10596171B2, “Cap-dependent endonuclease inhibitors” (priority 2018, dated 2020)

What was measured:
influenza A virus [1] = experiment: microbe, parasite or virus in culture; details: MDCK, 72 h, read-out: EC50 (reduce virus-induced CPE by 50%)
influenza A virus [2] = details: mouse, in vivo

SMILES | EC50 (influenza A virus [1]) [nM] | survival rate (influenza A virus [2]) [%]
O=C1c2c(O)c(=O)ccn2N(C2c3ccccc3SCc3c(F)cccc32)CC12CC2 (stereo not shown) [Compound 1, 1-(1-Fluoro-5,11-dihydro-10-thia-dibenzo[a,d]cyclohepten-5-yl)-5-hydroxy-3,3-cyclopropyl-2,3-dihydro-1H-pyrido[1,2-b]pyridazine-4,6-dione] | < 100 | 
O=C1c2c(O)c(=O)ccn2N(C2c3ccccc3SCc3c2ccc(F)c3F)CC12CC2 (stereo not shown) [Compound 2] | < 100 | 
O=C1c2c(O)c(=O)ccn2N(C2c3ccc(F)cc3CSc3c(Cl)cccc32)CC12CC2 (stereo not shown) [Compound 3] | < 100 | 
O=C1c2c(O)c(=O)ccn2N(C2c3ccc(Cl)cc3CSc3ccccc32)CC12CC2 (stereo not shown) [Compound 4] | < 100 | 
O=C1c2c(O)c(=O)ccn2N(C2c3ccc(F)cc3CSc3c(F)cccc32)CC12CC2 (stereo not shown) [Compound 5] | < 100 | 
Cc1cccc2c1SCc1cc(Cl)ccc1C2N1CC2(CC2)C(=O)c2c(O)c(=O)ccn21 (stereo not shown) [Compound 6] | < 100 | 
Cc1cccc2c1SCc1cc(F)ccc1C2N1CC2(CC2)C(=O)c2c(O)c(=O)ccn21 (stereo not shown) [Compound 7] | < 100 | 
O=C1c2c(O)c(=O)ccn2N(C2c3ccc(F)cc3CSc3ccccc32)CC12CC2 (stereo not shown) [Compound 8] | < 100 | 
O=C1c2c(O)c(=O)ccn2N(C2c3ccccc3CSc3c(F)cccc32)CC12CC2 (stereo not shown) [Compound 9] | < 100 | 
Cc1cccc2c1SCc1c(F)cccc1C2N1CC2(CC2)C(=O)c2c(O)c(=O)ccn21 (stereo not shown) [Compound 10] | < 100 | 
Cc1cccc2c1SCc1ccccc1C2N1CC2(CC2)C(=O)c2c(O)c(=O)ccn21 (stereo not shown) [Compound 11] | 100 to 1000 | 
O=C1c2c(O)c(=O)ccn2N(C2c3cccc(F)c3CSc3c(Cl)cccc32)CC12CC2 (stereo not shown) [Compound 12] | 100 to 1000 | 
O=C1c2c(O)c(=O)ccn2N(C2c3ccccc3CSc3c(Cl)cccc32)CC12CC2 (stereo not shown) [Compound 13] | < 100 | 
O=C1c2c(O)c(=O)ccn2N(C2c3ccc(Cl)cc3CSc3c(F)cccc32)CC12CC2 (stereo not shown) [Compound 14] | 100 to 1000 | 
O=C1c2c(O)c(=O)ccn2N(C2c3ccc(F)cc3COc3c(Cl)cccc32)CC12CC2 (stereo not shown) [Compound 15] | 100 to 1000 | 
Cc1cccc2c1SCc1c(ccc(F)c1F)C2N1CC2(CC2)C(=O)c2c(O)c(=O)ccn21 (stereo not shown) [Compound 16] | < 100 | 
O=C1c2c(O)c(=O)ccn2N(C2c3ccc(F)c(F)c3CSc3c(F)cccc32)CC12CC2 (stereo not shown) [Compound 17] | < 100 | 
O=C1c2c(O)c(=O)ccn2N(C2c3ccc(F)c(F)c3CSc3c(Cl)cccc32)CC12CC2 (stereo not shown) [Compound 18] | < 100 | 
O=C1c2c(O)c(=O)ccn2N(C2c3ccccc3SCc3c2ccc(Cl)c3F)CC12CC2 (stereo not shown) [Compound 19] | < 100 | 
CC1CC12CN(C1c3ccccc3SCc3c1ccc(F)c3F)n1ccc(=O)c(O)c1C2=O (stereo not shown) [Compound 20] | < 100 | 

SMILES | EC50 (influenza A virus [1]) [nM] | survival rate (influenza A virus [2]) [%]
CC1N(C2c3ccccc3SCc3c2ccc(F)c3F)n2ccc(=O)c(O)c2C(=O)C12CC2 (stereo not shown) [Compound 21] | < 100 | 
CCC1N(C2c3ccccc3SCc3c2ccc(F)c3F)n2ccc(=O)c(O)c2C(=O)C12CC2 (stereo not shown) [Compound 22] | < 100 | 
O=C1c2c(O)c(=O)ccn2N(C2c3ccc(Cl)c(F)c3CSc3c(Cl)cccc32)CC12CC2 (stereo not shown) [Compound 23] | 100 to 1000 | 
O=C1c2c(O)c(=O)ccn2N(C2c3ccc(Cl)c(F)c3CSc3c(F)cccc32)CC12CC2 (stereo not shown) [Compound 24] | 100 to 1000 | 
C=CC1N(C2c3ccccc3SCc3c2ccc(F)c3F)n2ccc(=O)c(O)c2C(=O)C12CC2 (stereo not shown) [Compound 25] | < 100 | 
CC1N(C2c3ccc(F)c(F)c3CSc3c(F)cccc32)n2ccc(=O)c(O)c2C(=O)C12CC2 (stereo not shown) [Compound 26] | 100 to 1000 | 
Cc1cccc2c1SCc1c(ccc(F)c1F)C2N1C(C)C2(CC2)C(=O)c2c(O)c(=O)ccn21 (stereo not shown) [Compound 27] | < 100 | 
Cc1cc(=O)c(O)c2n1N(C1c3ccccc3SCc3c1ccc(F)c3F)CC1(CC1)C2=O (stereo not shown) [Compound 28] | < 100 | 
O=C1c2c(O)c(=O)ccn2N(C2c3ccccc3SCc3cccc(Br)c32)CC12CC2 (stereo not shown) [Compound 29] | < 100 | 
Cc1cc(=O)c(O)c2n1N(C1c3ccc(F)c(F)c3CSc3c(F)cccc31)CC1(CC1)C2=O (stereo not shown) [Compound 30] | < 100 | 
Cc1cccc2c1SCc1c(ccc(F)c1F)C2N1CC2(CC2)C(=O)c2c(O)c(=O)cc(C)n21 (stereo not shown) [Compound 31] | 100 to 1000 | 
CCOC(=O)C1CC12CN(C1c3ccccc3SCc3c1ccc(F)c3F)n1ccc(=O)c(O)c1C2=O (stereo not shown) [Compound 32] | < 100 | 
O=C(O)C1CC12CN(C1c3ccccc3SCc3c1ccc(F)c3F)n1ccc(=O)c(O)c1C2=O (stereo not shown) [Compound 33] | < 100 | 
O=C1c2c(O)c(=O)ccn2N(C2c3ccccc3SCc3c2ccc(F)c3F)CC12CC2COCc1ccccc1 (stereo not shown) [Compound 34] | 100 to 1000 | 
CC1CC12CN(C1c3ccc(F)c(F)c3CSc3c(F)cccc31)n1ccc(=O)c(O)c1C2=O (stereo not shown) [Compound 35] | < 100 | 
Cc1cccc2c1SCc1c(ccc(F)c1F)C2N1CC2(CC2C)C(=O)c2c(O)c(=O)ccn21 (stereo not shown) [Compound 36] | < 100 | 
CCC1CC12CN(C1c3ccccc3SCc3c1ccc(F)c3F)n1ccc(=O)c(O)c1C2=O (stereo not shown) [Compound 37] | < 100 | 
COCC1CC12CN(C1c3ccccc3SCc3c1ccc(F)c3F)n1ccc(=O)c(O)c1C2=O (stereo not shown) [Compound 38] | < 100 | 
[2H]c1c([2H])c([2H])c2c(c1[2H])SCc1c(ccc(F)c1F)[C@@H]2N1CC2(CC2)C(=O)c2c(O)c(=O)ccn21 [Compound 39] | < 100 | 
CCOC(=O)C1=C[C@@H](OC(CC)CC)[C@H](NC(C)=O)[C@@H](N)C1 [oseltamivir] |  | 16.7
